{"source": "the supplement of paper PMC8728848", "binders": {"B1": {"name": "LecB LY19 (Pseudomonas aeruginosa) (protein)", "chain": "MATQGVFTLPANTQFGVTAFANSAGTQTVNVQVNNETVATFTGQSTNNGIIGSKVLNSGGGGKVQILVSVNGRSSDLVSAQVILANELNFALVGSEDSTDNDYNDAVVVINWPLG"}}, "assay_in_all_cases": "glycan array binding signal (z-score within array); higher = stronger binding", "settings_in_all_cases": "glycan notation: IUPAC condensed, linker removed", "key": {"Neu5Ac(a2-3)GalNAc": {"molecular_target": "Neu5Ac(a2-3)GalNAc", "outline": "(§1)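 Glycan array data were curated from 3228 arrays in the Consortium for Functional Glycomics database and kept only where the protein sequence was available. Glycan names were converted to IUPAC-condensed notation, and columns mapping to the same glycan were averaged. The binding signal is a within-array Z-score, averaged across arrays of the same protein sequence at different concentrations or buffers and across linkers. Negative Z-scores can be read as non-binding.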"}, "[1]": {"molecular_target": "Neu5Ac(a2-3)GalNAc(b1-4)GlcNAc", "outline": "as §1"}, "[2]": {"molecular_target": "Neu5Ac(a2-3)[GalNAc(b1-4)]Gal(b1-4)Glc", "outline": "as §1"}, "[3]": {"molecular_target": "Neu5Ac(a2-3)[GalNAc(b1-4)]Gal(b1-4)GlcNAc", "outline": "as §1"}, "[4]": {"molecular_target": "Neu5Ac(a2-3)[GalNAc(b1-4)]Gal(b1-4)GlcNAc(b1-3)GalNAc", "outline": "as §1"}, "[5]": {"molecular_target": "Neu5Ac(a2-3)[Neu5Ac(a2-6)]GalNAc", "outline": "as §1"}, "Neu5Ac(a2-6)Gal": {"molecular_target": "Neu5Ac(a2-6)Gal", "outline": "as §1"}, "[6]": {"molecular_target": "Neu5Ac(a2-6)Gal(b1-3)GlcNAc(b1-3)[Gal(b1-4)GlcNAc(b1-6)]Gal(b1-4)Glc", "outline": "as §1"}, "Neu5Ac(a2-6)Gal(b1-4)Glc": {"molecular_target": "Neu5Ac(a2-6)Gal(b1-4)Glc", "outline": "as §1"}, "[7]": {"molecular_target": "Neu5Ac(a2-6)Gal(b1-4)GlcNAc", "outline": "as §1"}, "[8]": {"molecular_target": "Neu5Ac(a2-6)Gal(b1-4)GlcNAc(b1-2)Man", "outline": "as §1"}, "[9]": {"molecular_target": "Neu5Ac(a2-6)Gal(b1-4)GlcNAc(b1-2)Man(a1-3)Man(b1-4)GlcNAc(b1-4)GlcNAc", "outline": "as §1"}, "[10]": {"molecular_target": "Neu5Ac(a2-6)Gal(b1-4)GlcNAc(b1-2)Man(a1-3)[Gal(b1-4)GlcNAc(b1-2)Man(a1-6)]Man(b1-4)GlcNAc(b1-4)GlcNAc", "outline": "as §1"}, "[11]": {"molecular_target": "Neu5Ac(a2-6)Gal(b1-4)GlcNAc(b1-2)Man(a1-3)[GlcNAc(b1-4)][Neu5Ac(a2-6)Gal(b1-4)GlcNAc(b1-2)Man(a1-6)]Man(b1-4)GlcNAc(b1-4)GlcNAc", "outline": "as §1"}, "[12]": {"molecular_target": "Neu5Ac(a2-6)Gal(b1-4)GlcNAc(b1-2)Man(a1-3)[Man(a1-6)]Man(b1-4)GlcNAc(b1-4)GlcNAc", "outline": "as §1"}, "[13]": {"molecular_target": "Neu5Ac(a2-6)Gal(b1-4)GlcNAc(b1-2)Man(a1-3)[Neu5Ac(a2-3)Gal(b1-4)GlcNAc(b1-2)Man(a1-6)]Man(b1-4)GlcNAc(b1-4)GlcNAc", "outline": "as §1"}, "[14]": {"molecular_target": "Neu5Ac(a2-6)Gal(b1-4)GlcNAc(b1-2)Man(a1-3)[Neu5Ac(a2-6)Gal(b1-4)GlcNAc(b1-2)Man(a1-6)]Man(b1-4)GlcNAc(b1-4)GlcNAc", "outline": "as §1"}, "[15]": {"molecular_target": "Neu5Ac(a2-6)Gal(b1-4)GlcNAc(b1-2)Man(a1-3)[Neu5Ac(a2-6)Gal(b1-4)GlcNAc(b1-2)Man(a1-6)]Man(b1-4)GlcNAc(b1-4)[Fuc(a1-6)]GlcNAc", "outline": "as §1"}, "[16]": {"molecular_target": "Neu5Ac(a2-6)Gal(b1-4)GlcNAc(b1-2)Man(a1-6)Man(b1-4)GlcNAc(b1-4)GlcNAc", "outline": "as §1"}, "[17]": {"molecular_target": "Neu5Ac(a2-6)Gal(b1-4)GlcNAc(b1-2)Man(a1-6)[Gal(b1-4)GlcNAc(b1-2)Man(a1-3)]Man(b1-4)GlcNAc(b1-4)GlcNAc", "outline": "as §1"}, "[18]": {"molecular_target": "Neu5Ac(a2-6)Gal(b1-4)GlcNAc(b1-2)Man(a1-6)[GlcNAc(b1-2)Man(a1-3)]Man(b1-4)GlcNAc(b1-4)GlcNAc", "outline": "as §1"}, "[19]": {"molecular_target": "Neu5Ac(a2-6)Gal(b1-4)GlcNAc(b1-2)Man(a1-6)[Man(a1-3)]Man(b1-4)GlcNAc(b1-4)GlcNAc", "outline": "as §1"}, "[20]": {"molecular_target": "Neu5Ac(a2-6)Gal(b1-4)GlcNAc(b1-2)[Neu5Ac(a2-6)Gal(b1-4)GlcNAc(b1-4)]Man(a1-3)[GlcNAc(b1-4)][Neu5Ac(a2-6)Gal(b1-4)GlcNAc(b1-2)[Neu5Ac(a2-6)Gal(b1-4)GlcNAc(b1-6)]Man(a1-6)]Man(b1-4)GlcNAc(b1-4)GlcNAc", "outline": "as §1"}, "[21]": {"molecular_target": "Neu5Ac(a2-6)Gal(b1-4)GlcNAc(b1-2)[Neu5Ac(a2-6)Gal(b1-4)GlcNAc(b1-4)]Man(a1-3)[GlcNAc(b1-4)][Neu5Ac(a2-6)Gal(b1-4)GlcNAc(b1-4)Man(a1-6)]Man(b1-4)GlcNAc(b1-4)GlcNAc", "outline": "as §1"}, "[22]": {"molecular_target": "Neu5Ac(a2-6)Gal(b1-4)GlcNAc(b1-2)[Neu5Ac(a2-6)Gal(b1-4)GlcNAc(b1-6)]Man(a1-6)[Neu5Ac(a2-6)Gal(b1-4)GlcNAc(b1-2)Man(a1-3)][GlcNAc(b1-4)]Man(b1-4)GlcNAc(b1-4)GlcNAc", "outline": "as §1"}, "[23]": {"molecular_target": "Neu5Ac(a2-6)Gal(b1-4)GlcNAc(b1-3)Gal(b1-3)GlcNAc", "outline": "as §1"}, "[24]": {"molecular_target": "Neu5Ac(a2-6)Gal(b1-4)GlcNAc(b1-3)Gal(b1-4)GlcNAc", "outline": "as §1"}, "[25]": {"molecular_target": "Neu5Ac(a2-6)Gal(b1-4)GlcNAc(b1-3)Gal(b1-4)GlcNAc(b1-2)Man(a1-3)[Neu5Ac(a2-6)Gal(b1-4)GlcNAc(b1-3)Gal(b1-4)GlcNAc(b1-2)Man(a1-6)]GalNAc", "outline": "as §1"}, "[26]": {"molecular_target": "Neu5Ac(a2-6)Gal(b1-4)GlcNAc(b1-3)Gal(b1-4)GlcNAc(b1-3)Gal(b1-4)GlcNAc", "outline": "as §1"}, "[27]": {"molecular_target": "Neu5Ac(a2-6)Gal(b1-4)GlcNAc(b1-3)Gal(b1-4)GlcNAc(b1-3)Gal(b1-4)GlcNAc(b1-2)Man(a1-3)[Neu5Ac(a2-6)Gal(b1-4)GlcNAc(b1-3)Gal(b1-4)GlcNAc(b1-3)Gal(b1-4)GlcNAc(b1-2)Man(a1-6)]GalNAc", "outline": "as §1"}, "[28]": {"molecular_target": "Neu5Ac(a2-6)Gal(b1-4)GlcNAc(b1-3)Gal(b1-4)GlcNAc(b1-3)GalNAc", "outline": "as §1"}, "[29]": {"molecular_target": "Neu5Ac(a2-6)Gal(b1-4)GlcNAc(b1-3)Gal(b1-4)GlcNAc(b1-3)[Neu5Ac(a2-6)Gal(b1-4)GlcNAc(b1-3)Gal(b1-4)GlcNAc(b1-6)]GalNAc", "outline": "as §1"}, "[30]": {"molecular_target": "Neu5Ac(a2-6)Gal(b1-4)GlcNAc(b1-3)Gal(b1-4)GlcNAc(b1-6)[Gal(b1-3)]GalNAc", "outline": "as §1"}, "[31]": {"molecular_target": "Neu5Ac(a2-6)Gal(b1-4)GlcNAc(b1-3)Gal(b1-4)[Fuc(a1-3)]GlcNAc(b1-3)Gal(b1-4)[Fuc(a1-3)]GlcNAc", "outline": "as §1"}, "[32]": {"molecular_target": "Neu5Ac(a2-6)Gal(b1-4)GlcNAc(b1-3)GalNAc", "outline": "as §1"}, "[33]": {"molecular_target": "Neu5Ac(a2-6)Gal(b1-4)GlcNAc(b1-3)[Neu5Ac(a2-6)Gal(b1-4)GlcNAc(b1-6)]GalNAc", "outline": "as §1"}, "[34]": {"molecular_target": "Neu5Ac(a2-6)Gal(b1-4)GlcNAc(b1-6)GalNAc", "outline": "as §1"}, "[35]": {"molecular_target": "Neu5Ac(a2-6)Gal(b1-4)GlcNAc(b1-6)[Gal(b1-3)GlcNAc(b1-3)]Gal(b1-4)Glc", "outline": "as §1"}}, "note": "The other results are listed elsewhere or left out.", "data": [{"binder": "B1", "values": [{"measurement": "glycan array binding signal (z-score)", "setting": "Neu5Ac(a2-3)GalNAc", "value": -0.428}, {"measurement": "glycan array binding signal (z-score)", "setting": "[1]", "value": -0.554}, {"measurement": "glycan array binding signal (z-score)", "setting": "[2]", "value": -0.524}, {"measurement": "glycan array binding signal (z-score)", "setting": "[3]", "value": -0.553}, {"measurement": "glycan array binding signal (z-score)", "setting": "[4]", "value": -0.553}, {"measurement": "glycan array binding signal (z-score)", "setting": "[5]", "value": -0.333}, {"measurement": "glycan array binding signal (z-score)", "setting": "Neu5Ac(a2-6)Gal", "value": -0.552}, {"measurement": "glycan array binding signal (z-score)", "setting": "[6]", "value": -0.508}, {"measurement": "glycan array binding signal (z-score)", "setting": "Neu5Ac(a2-6)Gal(b1-4)Glc", "value": -0.53}, {"measurement": "glycan array binding signal (z-score)", "setting": "[7]", "value": -0.527}, {"measurement": "glycan array binding signal (z-score)", "setting": "[8]", "value": -0.537}, {"measurement": "glycan array binding signal (z-score)", "setting": "[9]", "value": -0.516}, {"measurement": "glycan array binding signal (z-score)", "setting": "[10]", "value": -0.316}, {"measurement": "glycan array binding signal (z-score)", "setting": "[11]", "value": -0.543}, {"measurement": "glycan array binding signal (z-score)", "setting": "[12]", "value": -0.071}, {"measurement": "glycan array binding signal (z-score)", "setting": "[13]", "value": -0.539}, {"measurement": "glycan array binding signal (z-score)", "setting": "[14]", "value": -0.504}, {"measurement": "glycan array binding signal (z-score)", "setting": "[15]", "value": 0.475}, {"measurement": "glycan array binding signal (z-score)", "setting": "[16]", "value": -0.549}, {"measurement": "glycan array binding signal (z-score)", "setting": "[17]", "value": -0.558}, {"measurement": "glycan array binding signal (z-score)", "setting": "[18]", "value": -0.551}, {"measurement": "glycan array binding signal (z-score)", "setting": "[19]", "value": 0.735}, {"measurement": "glycan array binding signal (z-score)", "setting": "[20]", "value": -0.554}, {"measurement": "glycan array binding signal (z-score)", "setting": "[21]", "value": -0.546}, {"measurement": "glycan array binding signal (z-score)", "setting": "[22]", "value": -0.544}, {"measurement": "glycan array binding signal (z-score)", "setting": "[23]", "value": -0.553}, {"measurement": "glycan array binding signal (z-score)", "setting": "[24]", "value": -0.556}, {"measurement": "glycan array binding signal (z-score)", "setting": "[25]", "value": -0.473}, {"measurement": "glycan array binding signal (z-score)", "setting": "[26]", "value": -0.556}, {"measurement": "glycan array binding signal (z-score)", "setting": "[27]", "value": -0.493}, {"measurement": "glycan array binding signal (z-score)", "setting": "[28]", "value": -0.55}, {"measurement": "glycan array binding signal (z-score)", "setting": "[29]", "value": -0.53}, {"measurement": "glycan array binding signal (z-score)", "setting": "[30]", "value": -0.549}, {"measurement": "glycan array binding signal (z-score)", "setting": "[31]", "value": 2.08}, {"measurement": "glycan array binding signal (z-score)", "setting": "[32]", "value": -0.501}, {"measurement": "glycan array binding signal (z-score)", "setting": "[33]", "value": -0.543}, {"measurement": "glycan array binding signal (z-score)", "setting": "[34]", "value": -0.521}, {"measurement": "glycan array binding signal (z-score)", "setting": "[35]", "value": -0.413}]}]}
